Results on 85 compounds are retold here after ChEMBL document CHEMBL4888484, “Replenishing the malaria drug discovery pipeline: Screening and hit evaluation of the MMV Hit Generation Library 1 (HGL1) against asexual blood stage Plasmodium falciparum ,using a nano luciferase reporter read-out” (2022).

The structures appear in SMILES notation. In all, about 150,000 compounds went through this assay and about 540 (0.36%) showed an effect of 50% or more. Some of the results follow.

For this experiment, the system named is Plasmodium falciparum. As to the kind of experiment: Primary screen in NF54 nanoGlo assay, in single point, at 2uM, 72h; a lower Z score goes with more inhibition. Type of experiment: functional, Erythrocyte. The note with it: timepoint 72 hour.
What is called % Inhibition is the drop in the measured response relative to a control, in per cent. Consider `NCc1cc(-c2cccs2)nn1C1CCCC1`, for which the “% Inhibition” value was -10% and the Z score came to 1.17.
On the same counts, the results for `Cn1cncc1C(=O)N[C@H]1CC=CC[C@@H]1C(N)=O` are 3% and -0.45.
Take `CC1C(C(F)(F)F)CCCN1C(=O)c1ccc2[nH]c(=O)n(C)c2c1` (stereo not given): the “% Inhibition” value was -11% and the Z score is 1.72.
On the same counts, the results for `O=C(c1ccccc1)N1CCN([C@H]2CC(=O)N(Cc3ccccc3)C2=O)CC1` are -41% and 4.86.
On the same counts, the results for `Cc1ccccc1[C@@H](O)CNC(=O)NCCCOC1CCCC1` are 3% and -0.38.
Regarding `CNc1nc(C(=O)N2CC[C@@](O)(C3CCOCC3)[C@H](C)C2)cs1`, the “% Inhibition” value is -15% and the Z score is listed as 1.51.
Regarding `CC1(C)C2CCC1(C)C1(C2)NC(=O)c2ccccc2O1` (stereo not given), the “% Inhibition” value is -16% and the Z score is given as 1.92.
On the same counts, the results for `O=C(NC1CCCCC1)C1CC(O)CN1c1ccncn1` (stereo not given) are 17% and -2.13.
On the same counts, the results for `O=c1ccccn1CCNc1ncc(Br)cn1` are -7% and 0.79.
On the same counts, the results for `CCO[C@H]1CCCN(C(=O)CN2C(=O)NC3(CCCC3)C2=O)C1` are 0% and -0.03.
Turning to `c1ccc(Cn2ccnc2CN2CCN3CCCC[C@H]3C2)cc1`, the “% Inhibition” value is -15% and the Z score was 1.59.
As to `COc1ccccc1Cc1nc([C@H]2CCCNC2)n(-c2cccnc2)n1`, the “% Inhibition” value was determined as 6% and the Z score was -0.64.
In the case of `Cc1ccc(C)c2c(C)c(C(=O)N3CCC[C@@]4(CCCO4)CC3)[nH]c12`, the “% Inhibition” value was -7% and the Z score came to 1.32.
On the same counts, the results for `COc1cc2c(cc1OC)C1(CCCC1)CN(CCC(C)=O)C2` are -1% and 0.1.
On the same counts, the results for `CCc1nc(NC(=O)NCc2nc(C)c(C)s2)nn1C` are -10% and 1.25.
For the compound `C[C@@H]1OCCO[C@@H]1C(=O)Nc1cncc2ccccc12`, the “% Inhibition” value amounted to 6% and the Z score is -0.69.
On the same counts, the results for `C=CCN(Cc1nc(-c2cccc(Cl)c2)oc1C)[C@H]1CCS(=O)(=O)C1` are -25% and 3.71.
On the same counts, the results for `O=C(Cc1ccccc1)NCc1ccc(Cn2cccn2)cc1` are -7% and 0.91.
On the same counts, the results for `O=C([C@H]1CCCN(c2c(-c3ccccc3)c3cc(Cl)ccc3[nH]c2=O)C1)N1CCc2ccccc2C1` are -19% and 2.92.
For the compound `O=C(NC[C@H]1CCc2ccccc2O1)c1cnc(-c2cccnc2)nc1`, the “% Inhibition” value was -21% and the Z score amounted to 3.46.
On the same counts, the results for `CCCOCc1ccccc1CN=C(NC)NC` are 5% and -0.55.
On the same counts, the results for `CCCCC[C@H](C)NC(=O)CS(=O)(=O)Cc1c(C)noc1C` are -1% and 0.08.
On the same counts, the results for `CCN(CCOc1cccc(Cl)c1)C(=O)CN1C(=O)CN(C)C1=O` are -13% and 2.31.
For the compound `CCOC(=O)N1CCc2c(c3ccccc3n2Cc2ccccc2)C1`, the “% Inhibition” value was 0% and the Z score was -0.07.
On the same counts, the results for `Cc1c(C(=O)NCc2ccccc2)c2ccccn2c1C(=O)c1ccc(Cl)cc1` are -14% and 1.61.
Consider `COCc1nc(CN(C)Cc2nccn2CC(F)(F)F)cs1`, for which the “% Inhibition” value worked out at 1% and the Z score is -0.11.
On the same counts, the results for `CN(C(=O)NCCc1ccc2c(c1)CCO2)C1CC[S+]([O-])CC1` (stereo not given) are 1% and -0.07.
With `Cn1ccnc1[C@H](NC(=O)c1ccc(Cl)c(NC(=O)c2cccs2)c1)c1ccc(Cl)cc1`, the “% Inhibition” value is 2% and the Z score is -0.22.
On the same counts, the results for `Nc1ncccc1CN1C[C@H](NC(=O)C2CCOCC2)[C@@H](C2CC2)C1` are 3% and -0.62.
On the same counts, the results for `FC(F)(F)c1ccc(N2CC(Nc3nccn4nnnc34)C2)cc1` are -11% and 1.07.
On the same counts, the results for `CCn1ncnc1[C@@H]1CC(=O)Nc2cc3c(cc21)CCc1ccccc1N3` are -3% and 0.42.
Take `Cc1cc(C(=O)Nc2cccc(C)c2C)c2c(C)nn(-c3ccc(F)cc3)c2n1`: the “% Inhibition” value is -33% and the Z score is listed as 3.84.
On the same counts, the results for `COc1ccccc1CN1CCN(C(=O)[C@H]2CCCN(S(C)(=O)=O)CCC(=O)NCC2)CC1` are -16% and 2.03.
On the same counts, the results for `O=C(Nc1ccc2c(c1)OCO2)N1CCC(Oc2cccc3cccnc23)CC1` are -4% and 0.74.
On the same counts, the results for `CN(C[C@H]1CCCO1)C(=O)C(C)(C)S(C)(=O)=O` are -14% and 2.22.
On to `Cn1cc(CCS(=O)(=O)c2cccc(Br)c2)nn1`, for which the “% Inhibition” value is -3% and the Z score was 0.43.
For `CNc1cc(-c2cncc3ccccc23)c2cc[nH]c2n1`, the “% Inhibition” value is listed as -6% and the Z score was found to be 1.09.
On the same counts, the results for `Cc1ccc(S(=O)(=O)c2cn(CC(=O)N3CCOCC3)c3ccccc23)cc1` are -13% and 1.44.
On the same counts, the results for `O=C(NC1CCCCCC1)C1CCN(c2nc3ccccc3[nH]2)CC1` are 2% and -0.32.
On the same counts, the results for `OCCC1CCCCN1CC(O)COc1ccc2ccccc2c1` (stereo not given) are -5% and 0.74.
For `O=C(CC1(O)CCCCC1)N[C@H]1CCN(C2CCCCC2)C1=O`, the “% Inhibition” value stood at 2% and the Z score is reported as -0.18.
Consider `c1ccc(C2(c3nc([C@H]4CCOC4)no3)CCCC2)cc1`, for which the “% Inhibition” value is listed as -14% and the Z score is on record as 1.31.
Consider `O=C(NCc1cccnc1N1CCC[C@H](O)C1)c1ccc(Cl)c(F)c1`, for which the “% Inhibition” value is on record as -9% and the Z score was found to be 1.2.
`COc1ccc(CNC(=O)[C@H]2CCn3c(nc4ccccc43)C2)cc1`: the “% Inhibition” value is on record as -9% and the Z score is on record as 0.86.
On the same counts, the results for `Cc1cc(C)c2c(CC(=O)N3CCOC[C@@H](CO)C3)coc2c1C` are 9% and -1.36.
On the same counts, the results for `Cc1ccc(F)c(N2CCC[C@H](NC(=O)Cn3cccn3)C2)c1` are 1% and -0.17.
Turning to `CN1CCN(c2ccccc2NC(=O)N[C@@]2(C)CCS(=O)(=O)C2)CC1`, the “% Inhibition” value is listed as -4% and the Z score is on record as 0.56.
On the same counts, the results for `Cc1nn(-c2ccccc2)c2[nH]cc(C(=O)Nc3cccc4ccccc34)c(=O)c12` are -25% and 3.16.
On the same counts, the results for `CCn1nnnc1NC(=O)NC[C@H]1CC(C)(C)OC1(C)C` are 10% and -1.84.
As to `O=C(c1ccco1)N1CCN(c2cc(-n3cccn3)ncn2)CC1`, the “% Inhibition” value is listed as -19% and the Z score stood at 2.96.
On the same counts, the results for `CC(C)c1ccc(N2C(=O)[C@H](CC(=O)N3CCc4ccccc4C3)N=C2O)cc1` are -14% and 1.77.
On the same counts, the results for `Cc1ncc2c(c1-c1noc(C3CCCCC3)n1)CCN(C(=O)NC(C)C)C2` are -11% and 2.08.
On the same counts, the results for `O=C(N1CCN(C(=O)C(F)(F)F)CC1)C(F)(F)F` are -15% and 1.89.
`CC(=O)N1CCC2(CC1)N=C(c1ccc(F)cc1)C[C@@H](c1cc(Cl)ccc1O)N2`: the “% Inhibition” value is -11% and the Z score came out at 1.6.
In the case of `Cc1csc(CNC(=O)[C@H]2CCC(=O)N(Cc3ccc(Cl)cc3)C2)n1`, the “% Inhibition” value was -3% and the Z score came out at 0.38.
Consider `CC1CCCN(CC(=O)NC(C)(C#N)C2CC2)C1` (stereo not given), for which the “% Inhibition” value is reported as -6% and the Z score turned out to be 0.62.
On the same counts, the results for `CC(C)CN1CC2(CCN(C(=O)Nc3ccc(F)c(F)c3)CC2)CC1=O` are -17% and 2.01.
For `O=C(c1ccc(-n2ccc3ccccc32)s1)N1CCN(c2ccccc2)CC1`, the “% Inhibition” value is listed as -13% and the Z score was found to be 1.67.
On the same counts, the results for `NS(=O)(=O)c1cnccc1NC1CCCCC1` are -41% and 4.81.
On the same counts, the results for `COc1ccc(CN2CCN(C(=O)C3CCCC3)CC2)cn1` are 10% and -1.24.
On the same counts, the results for `CS(=O)(=O)N(CC(=O)NC1CC2CCC1C2)c1ccc(OCc2ccccc2)cc1` (stereo not given) are -8% and 0.89.
Turning to `Cn1c(CN2CCOCC2)nnc1[C@H]1CCCN(c2ncccc2F)C1`, the “% Inhibition” value was -10% and the Z score amounted to 1.28.
On the same counts, the results for `Cc1nc(N2CCCCCCC2)ncc1[C@H](C)Nc1ccnc(N)n1` are -6% and 0.72.
On the same counts, the results for `CN(Cc1cc(-c2ccccc2)no1)C(=O)c1cn2c(n1)CNCC2` are -17% and 1.55.
On the same counts, the results for `CC(C)[C@H](CNc1ncnc2ccsc12)N1CCN(C)CC1` are 32% and -4.26.
`O=C(CCCc1nc(C2CC2)nn1[C@H]1CCS(=O)(=O)C1)c1ccccc1`: the “% Inhibition” value is -8% and the Z score stood at 1.04.
On the same counts, the results for `COCC1(C(=O)NC[C@H]2CN(C)CCO2)CCC1` are -14% and 1.79.
On the same counts, the results for `COC[C@H](C)C(=O)Nc1cc(C)ns1` are 8% and -0.84.
On the same counts, the results for `O=C(Cc1nnc(-c2ccccc2)o1)NC[C@H]1CCCO1` are -9% and 1.55.
On to `COc1cc(Cl)cc(C(=O)N2CCOC[C@@H](CO)C2)c1`, for which the “% Inhibition” value is listed as -12% and the Z score came out at 1.2.
On the same counts, the results for `Cc1cc(C(=O)NCCn2ccnc2C)no1` are -19% and 2.73.
On the same counts, the results for `Cc1[nH]ncc1S(=O)(=O)N1CCN(CC(F)(F)C(F)F)CC1` are 12% and -1.31.
For the compound `COc1ccc(NC(=O)C2(N(Cc3cccnc3)C(=O)CC3C(c4c(C)[nH]c5ccccc45)C3(C)C)CCN(C)CC2)cc1` (stereo not given), the “% Inhibition” value was -23% and the Z score was 2.66.
Turning to `CN(CC1(CO)CCCC1)c1ncccc1F`, the “% Inhibition” value was -21% and the Z score is recorded as 2.72.
On the same counts, the results for `COc1ccc(N2CCN(Cc3nc4nc(C)cc(N(C)C)n4n3)CC2)cc1` are 0% and 0.08.
`Cc1nnc(CN2CCC(CNC(=O)c3ccccc3)CC2)o1`: the “% Inhibition” value is reported as -13% and the Z score is 2.58.
On the same counts, the results for `CN(C)c1ccc(S(=O)(=O)NCc2nnc(N(C)C)[nH]2)cc1` are -14% and 2.24.
In the case of `COCC(=O)N[C@H]1CCCC[C@@H]1OC`, the “% Inhibition” value is listed as -11% and the Z score turned out to be 1.11.
On the same counts, the results for `Cc1ccc(CN(C)CCn2ccnc2C)s1` are -13% and 1.3.
For the compound `O=C(c1ccc(Cl)cc1)n1nc(Nc2ccc(Cl)cc2)cc1Nc1ccc(Cl)cc1`, the “% Inhibition” value is given as -13% and the Z score turned out to be 1.94.
On to `COCn1ccc(C(=O)NC(C)(C)c2ccc(Br)c(C)c2)n1`, for which the “% Inhibition” value is -1% and the Z score is listed as 0.12.
As to `O=C(NC1CCN2CCCC2C1)N(CCc1cccc(F)c1)C1CC1` (stereo not given), the “% Inhibition” value is -2% and the Z score is 0.25.
On the same counts, the results for `O=C(NC[C@H](NC(=O)c1cscn1)c1ccccc1)c1cscn1` are -5% and 0.61.
On the same counts, the results for `O=C(Cc1ccc(O)cc1)NC[C@H]1CCN(C2CCCC2)C1` are -5% and 0.67.
Take `Cc1sc(-c2ccn[nH]2)cc1NC(=O)c1cccc(C#N)c1`: the “% Inhibition” value is -21% and the Z score is reported as 2.15.
